Measurements from PubChem BioAssay AID1963576 (National Center for Advancing Translational Sciences (NCATS), 2024).
Out of some 46,000 compounds screened, about 60 (0.1%) were called active. Inconclusive results (about 3%) are left out. Calls come from the whole dose curve; as a rule, active = well fitted inhibition curve with a large enough effect; inconclusive = small, poorly fitted or top-dose-only effect; inactive = no such curve, though single readings can be large or run the other way. This is one part of the list.

assay: Primary qHTS assay for Inhibitors of ovarian cancer metastasis using an organotypic tumor microenvironment (TME) model.; note: nearly all actives have a fitted effect of over 65% in size;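 for activity change, negative = inhibition: plate controls were DMSO wells for no effect and tomatine positive control wells for full effect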; conditions: SKOV3ip1-GFP adhesion/invasion on 3D omental model, fluorescence; series mostly up to 45.8 µM; activity change, negative = inhibition: at the top concentration
Summary of the method: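 Adhesion/invasion was scored as fixed GFP-labeled SKOV3ip1 cell counts (488/509 nm), normalized to DMSO and tomatine controls. Cancer cells in serum-free medium, with four compound doses (0.36-46 umol/L), sat 2 hr at RT then 16 hr at 37 C on a 48 hr fibroblast/mesothelial/ECM culture.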

Activity change, negative = inhibition, inactive:
COc1ccccc1NC(=O)CSc1oc(-c2ccco2)nc1S(=O)(=O)c1ccc(Br)cc1 0.396%
Cc1cc(OCCn2cc(C(=O)c3ccco3)c3ccccc32)ccc1Cl 0.735%
COc1cccc(CNC(=O)CCc2nc(-c3ccc(C)cc3)no2)c1 -8.16%
Cc1nn(CC(=O)NCc2cccc(F)c2)c(=O)c2c(C)n(-c3ccc(Cl)cc3)nc12 -7.51%
COc1ccccc1Oc1nc2c(C)cccn2c(=O)c1/C=C(\C#N)c1nc2ccccc2[nH]1 -0.0612%
CCOC(=O)c1cc(-c2ccc(C)cc2)n(CC(=O)Nc2ccc(OC)c(Cl)c2)c1C -0.395%
CC1CN(C(=O)CCC(=O)NCc2cccs2)c2cc(Cl)ccc2O1 (stereo unspecified) -10.3%
COc1ccc(N(C(=O)c2ccccc2C)S(=O)(=O)c2ccc(C)cc2)cc1 1.28%
CCOC(=O)C1=C(CN2CCN(c3cc(C)ccc3C)CC2)NC(=O)NC1c1ccccc1 (stereo unspecified) -12%
COc1ccc2nc(N(Cc3cccnc3)C(=O)c3ccco3)sc2c1 -25.6%
COc1ccc(-n2cc(C(=O)NCc3ccc(Cl)cc3)c3ccccc3c2=O)cc1 -0.642%
Cc1ccc(-c2nnn(CC(=O)N(CC(=O)NCCC(C)C)c3ccc(F)cc3)n2)cc1 -9.29%
COc1ccccc1N1CCN(S(=O)(=O)c2cc(-c3cc(C)no3)ccc2C)CC1 -6.49%
CCc1ccc2oc(C(=O)NCCc3ccc(OC)c(OC)c3)cc(=O)c2c1 -1.95%
COc1cccc(CN2C(=O)C3(SCC(=O)N3c3cc(C)cc(C)c3)c3ccccc32)c1 (stereo unspecified) -0.146%
Cc1ccc2nc(-c3c[nH]c4ccccc34)c(Nc3ccccc3)n2c1 -4.89%
O=C(NCCc1ccc(F)cc1)C(=O)NCC(c1ccc2c(c1)OCO2)N1CCOCC1 (stereo unspecified) -1.62%
COc1ccc(S(=O)(=O)Nc2cc(-c3cn4cccc(C)c4n3)ccc2C)cc1C -1.25%
Cc1ccc(C(C)C)c(OCC(=O)Nc2nc3c(s2)CCCC3)c1 -9.95%
CCCCCOC(=O)c1ccc(Nc2nc(C(=O)OCC)nc3ccccc23)cc1 -8.76%
CC1=C(C(=O)Nc2ccc(C)c(C)c2)C2(CCCCCC2)OC1=O -0.244%
COc1ccc(-c2cnc(NCc3ccc(C)cc3)n2C)cc1 -3.18%
O=C(CSc1nc(-c2ccccc2)cc(=O)[nH]1)Nc1ccccc1F -8.96%
CCC(C)NC(=O)c1sc2nc(C)c(C(=O)Nc3ccc(C)cc3C)c(-c3ccc(Br)cc3)c2c1N (stereo unspecified) 13%
COc1cc(C2NC(=O)N(C)C3=C2C(=O)N(c2ccccc2)C3)ccc1O (stereo unspecified) 7.42%
COc1ccccc1NC(=O)CSc1oc(-c2cccs2)nc1S(=O)(=O)c1ccc(C)cc1 14.4%
CCN(CC)c1nc2c(S(=O)(=O)c3ccc(C)cc3)nnn2c2ccsc12 0.832%
COc1ccc(CCNC(=O)CSc2nc3ccccc3nc2Cc2ccc(C)cc2)cc1OC 1.68%
COc1ccccc1CNC(=O)c1nn(-c2ccc(C)cc2)c(=O)c2c1c1ccccc1n2C -0.955%
CCCSc1nnc2c(n1)OC(CC)N(C(C)=O)c1ccccc1-2 (stereo unspecified) 3.8%
O=C(CN1C(=O)COc2ccc(S(=O)(=O)N3CCCCC3)cc21)NCCc1ccc(Cl)cc1 -0.491%
Cc1ccccc1NC(=O)c1ccccc1NC(=O)c1ccccc1F -7.38%
COc1ccc(-c2nc3ccc(C(=O)NCc4ccccc4)cc3nc2-c2ccc(OC)cc2)cc1 1.45%
O=C(Nc1nnc(S(=O)(=O)N2CCCC2)s1)c1ccccc1Cl 1.06%
OC[C@H]1O[C@@H](O[C@H]2[C@@H](O)[C@@](O)(CO)O[C@@H]2CO)[C@H](O)[C@@H](O)[C@@H]1O -9.79%
CCn1ccc2cc(S(=O)(=O)N3CCC(C(=O)NCc4ccc(OC(C)C)cc4)CC3)ccc21 -1.64%
Cc1cccc(OCC(=O)NCc2ccc3c(c2)CCN3C(=O)c2ccccc2)c1 13.2%
CC1=C(c2ccc(C)c(C)c2)S(=O)(=O)N(Cc2ccc(C(=O)NCc3ccc(C)cc3)cc2)C1=O 6.51%
COc1ccc(Cc2nc3c4cnn(-c5ccccc5Br)c4ncn3n2)cc1 21.4%
COc1ccc(N2CCN(S(=O)(=O)c3c(C)nc4sc(C)cn4c3=O)CC2)cc1 4.37%
O=C(Cn1nc(C(F)(F)F)c2c1CCCC2)Nc1ccc(F)c(Cl)c1 -6.89%
CC(=O)Nc1ccc(NC(=O)Nc2sc3nc4n(c(=O)c3c2C)CCC(C)CC4)cc1 (stereo unspecified) 0.974%
COc1ccc(-c2ccc(=O)n(CC(=O)Nc3ccc(N(C)C)cc3)n2)cc1 1.41%
Cc1c(C(=O)NCc2ccc(F)cc2)sc2nc3n(c(=O)c12)CCC3 2.88%
CCOc1ccc(NC(=O)c2cc(CN3CCCC3)on2)cc1 1.77%
COc1ccc(/C=C/C(=O)Nc2ccc(Cl)c(Cl)c2)cc1OC -15.1%
O=C(Cn1c(=O)oc2cc(S(=O)(=O)NCc3ccccc3)ccc21)NCc1ccc(F)cc1 -0.432%
COc1ccc(OC)c(NC(=O)Cn2cc(C(=O)c3cccs3)c3ccccc32)c1 12.4%
Cc1ccc2nc(Nc3ccc(Br)cc3)nc(-c3ccccc3)c2c1 -6.1%
Cc1cccc(N(C)C(=O)C2CCN(S(=O)(=O)c3cccc4nonc34)CC2)c1 3.82%
COc1ccc(OC)c(NC(=O)c2ccc(-c3nc(COc4ccccc4)c(C)o3)cc2)c1 2.4%
Cc1c(NC(=O)c2cc3ccccc3o2)cccc1-c1nc2ccccc2o1 6.07%
CCCCc1nn2c(=O)cc(COC(=O)CNC(=O)c3ccccc3C)nc2s1 102%
CSc1ccc(C2c3c(oc4ccc(F)cc4c3=O)C(=O)N2c2ccc(C)cn2)cc1 (stereo unspecified) -2.02%
CCC(=O)N1CCc2cc(CNS(=O)(=O)c3ccc(Cl)s3)ccc21 -9.31%
Cc1ccc2nc(SC(Cc3cc(Cl)ccc3Cl)C(=O)O)[nH]c2c1 (stereo unspecified) 6.85%
COc1ccc(CNC(=O)c2cc3sccc3n2C)cc1 -0.732%
COc1cccc(NC(=O)c2sc3nc(C)c(C(=O)Nc4ccc(C)cc4C)c(-c4ccc(Br)cc4)c3c2N)c1 -18.9%
Cc1cc(Cl)ccc1NC(=O)C1CCN(S(=O)(=O)c2ccc3[nH]c(=O)ccc3c2)CC1 -12.4%
NC(=O)C1(N2CCCCC2)CCN(C(=O)Nc2ccc(Cl)c(Cl)c2)CC1 13.6%
Cc1ccc(C)c(N2CCN(C(=O)C3CCN(Cc4nc(-c5cccc(Cl)c5)oc4C)CC3)CC2)c1 0.732%
Cc1ccc(C2c3[nH]c4ccccc4c3CCN2C(=O)c2ccc(N(C)C)cc2)cc1 (stereo unspecified) -2.54%
COc1ccc(CN(C(=O)Nc2ccccc2)c2ccccn2)cc1OC 4.46%
CC(C)NC(=O)c1cnc2sc(N3CCCCCC3)nn2c1=O -4.57%
O=S(=O)(Nc1c(F)cccc1F)c1ccc2c(c1)OCCO2 -7.71%
Cc1ccc2oc(C(=O)Nc3c(C(=O)c4ccc(C)c(F)c4)oc4ccccc34)cc(=O)c2c1 0.867%
Cc1ccc(S(=O)(=O)N(Cc2nc(-c3ccc(Cl)cc3)no2)C2CCCCC2)cc1 -1.53%
COc1ccccc1N1CCN(CCC(=O)Nc2cccc(F)c2)CC1 6.9%
CCOCCCNC(=O)N1CCN(S(=O)(=O)c2ccc3c(ccn3C)c2)CC1 78.5%
COc1ccc(-c2noc(-c3ccc(N4CCOCC4)c([N+](=O)[O-])c3)n2)cc1OC 9.84%
O=C(Cn1c(=O)n(-c2ccccc2)c(=O)c2ccc(C(=O)NCc3ccc4c(c3)OCO4)cc21)Nc1ccc(Br)cc1F 12.5%
CCOc1ccc(NC(=O)CSc2oc(-c3cccs3)nc2S(=O)(=O)c2ccc(Cl)cc2)cc1 -6.54%

outcome, inactive:
Cc1ccc(CCNC(=O)c2cc3sccc3n2Cc2ccc(Cl)cc2)cc1
Cc1ccc2c(c1)c1c(c(=O)n(-c3ccccc3)c(=O)n1CC(=O)NCCC1=CCCCC1)n2C
CCC(C)NC(=O)c1ccccc1NC(=O)C1CCN(S(=O)(=O)Cc2ccccc2)CC1 (stereo unspecified)
O=C(c1ccc2c(c1)OCCO2)N(Cc1cccnc1)c1nc2ccc(Cl)cc2s1
Cc1coc2c1c(C)cc1oc(=O)c(CC(=O)NCc3ccc(Cl)cc3)c(C)c12
Cc1ccc2[nH]c(=O)c3cc(C(=O)N4CCN(c5ccccc5F)CC4)sc3c2c1
O=C(NCc1ccccc1)c1cccc(NC(=O)N2CCSc3ncccc32)c1
Cc1cccc(CSc2ncc(Cl)c(C(=O)Nc3sc4c(c3C#N)CCCC4)n2)c1
COC(=O)COc1ccc(Oc2nc(NC(C)(C)C)nc(N3CCOCC3)n2)nn1
CCOc1ccccc1CNC(=O)Cn1nc(C)c2nn(-c3ccc(Cl)cc3)c(C)c2c1=O
CCOc1ccc2oc(=O)cc(CN3CCN(C(=O)c4ccc(Cl)cc4)CC3)c2c1
CCc1cccc(CC)c1NC(=O)Cc1csc(C)n1
Cc1cc(Nc2cccc(F)c2)n2nc(-c3ccco3)nc2n1
Cc1cccc(CN2C(=O)c3ccccc3Sc3ccc(C(=O)NCCc4ccccc4)cc32)c1
COc1ccc(N2CCN(C(=O)c3cc4c(=O)n(Cc5cccs5)ccc4nc3C)CC2)cc1
CCOC(=O)c1cc(-c2ccccc2)nn1Cc1ccccc1
O=C(CCOc1ccccc1)N(Cc1cccnc1)c1nc2c(Cl)cccc2s1
Cc1ccc(CCNC(=O)CCSCc2ccccc2F)cc1
Cc1cccc(Cn2c(=O)n(CCc3ccccc3)c(=O)c3sc4ccccc4c32)c1
CCOC(=O)c1c(C)[nH]c(CCC(=O)Nc2ccc(N(CC)CC)cc2C)c1C
CCn1nnc2cc(C(=O)Nc3cccc(C(F)(F)F)c3)ccc21
CCOC(=O)N1CCc2c(sc3c2c(=O)n(Cc2ccccc2)c(=O)n3CC(=O)Nc2ccccc2F)C1
CCCCSCCCNC(=O)CN1C(=O)COc2ccc(S(=O)(=O)N3CCCC3)cc21
COc1ccc(CNc2nc(-c3ccc(OC)c(OC)c3)cc(C(F)(F)F)n2)cc1
